The record followed here is article PMC9911399, “Two distinct binding modes provide the RNA-binding protein RbFox with extraordinary sequence specificity”.

Substitutions are numbered along the chain they refer to; changes in the protein carry UniProt numbers. Some of the results follow.

To fix the notation:
B1: GCCGACC (DNA:RNA)
RNA: GGGAGACCGGAAUUCAGAUUGUCCGCCGACCUUAAAUCCCGUCGUAGCCACCA
DNA 1: CAATCTGAATTCCGGTCTCCC
DNA 2: TGGTGGCTACGACGGGATT
B2: UUCUUAU (DNA:RNA)
RNA: B1 RNA with G25U, C26U, G28U, A29U, C30A, C31U
DNA 1: CAATCTGAATTCCGGTCTCCC
DNA 2: TGGTGGCTACGACGGGATT
B3: GUAGGAU (DNA:RNA)
RNA: B1 RNA with C26U, C27A, A29G, C30A, C31U
DNA 1: CAATCTGAATTCCGGTCTCCC
DNA 2: TGGTGGCTACGACGGGATT
B4: CGGUUAA (DNA:RNA)
RNA: GGGAGACCGGAAUUCAGAUUGUCCCGGUUAAUUAAAUCCCGUCGUAGCCACCA
DNA 1: CAATCTGAATTCCGGTCTCCC
DNA 2: TGGTGGCTACGACGGGATT
B5: AUUGAGA (DNA:RNA)
RNA: B1 RNA with G25A, C26U, C27U, C30G, C31A
DNA 1: CAATCTGAATTCCGGTCTCCC
DNA 2: TGGTGGCTACGACGGGATT
B6: CCAUGGU (DNA:RNA)
RNA: B4 RNA with G26C, G27A, U29G, A30G, A31U
DNA 1: CAATCTGAATTCCGGTCTCCC
DNA 2: TGGTGGCTACGACGGGATT
B7: UCAUGCA (DNA:RNA)
RNA: B4 RNA with C25U, G26C, G27A, U29G, A30C
DNA 1: CAATCTGAATTCCGGTCTCCC
DNA 2: TGGTGGCTACGACGGGATT
B8: AGCUUGG (DNA:RNA)
RNA: B4 RNA with C25A, G27C, A30G, A31G
DNA 1: CAATCTGAATTCCGGTCTCCC
DNA 2: TGGTGGCTACGACGGGATT
B9: UAGCCCU (DNA:RNA)
RNA: B4 RNA with C25U, G26A, U28C, U29C, A30C, A31U
DNA 1: CAATCTGAATTCCGGTCTCCC
DNA 2: TGGTGGCTACGACGGGATT
B10: AGAGGGG (DNA:RNA)
RNA: B4 RNA with C25A, G27A, U28G, U29G, A30G, A31G
DNA 1: CAATCTGAATTCCGGTCTCCC
DNA 2: TGGTGGCTACGACGGGATT
B11: CCUGCCG (DNA:RNA)
RNA: B1 RNA with G25C, C27U, A29C, C31G
DNA 1: CAATCTGAATTCCGGTCTCCC
DNA 2: TGGTGGCTACGACGGGATT
B12: GCGUGCC (DNA:RNA)
RNA: B1 RNA with C27G, G28U, A29G
DNA 1: CAATCTGAATTCCGGTCTCCC
DNA 2: TGGTGGCTACGACGGGATT
B13: GUUCUCA (DNA:RNA)
RNA: B4 RNA with C25G, G26U, G27U, U28C, A30C
DNA 1: CAATCTGAATTCCGGTCTCCC
DNA 2: TGGTGGCTACGACGGGATT
B14: AGGCCGU (DNA:RNA)
RNA: B4 RNA with C25A, U28C, U29C, A30G, A31U
DNA 1: CAATCTGAATTCCGGTCTCCC
DNA 2: TGGTGGCTACGACGGGATT
B15: GUCUUAA (DNA:RNA)
RNA: B4 RNA with C25G, G26U, G27C
DNA 1: CAATCTGAATTCCGGTCTCCC
DNA 2: TGGTGGCTACGACGGGATT
B16: ACCAGGC (DNA:RNA)
RNA: B1 RNA with G25A, G28A, A29G, C30G
DNA 1: CAATCTGAATTCCGGTCTCCC
DNA 2: TGGTGGCTACGACGGGATT
B17: ACUAAAG (DNA:RNA)
RNA: B1 RNA with G25A, C27U, G28A, C30A, C31G
DNA 1: CAATCTGAATTCCGGTCTCCC
DNA 2: TGGTGGCTACGACGGGATT
B18: ACGCGUU (DNA:RNA)
RNA: B4 RNA with C25A, G26C, U28C, U29G, A30U, A31U
DNA 1: CAATCTGAATTCCGGTCTCCC
DNA 2: TGGTGGCTACGACGGGATT
B19: UCGUCAG (DNA:RNA)
RNA: B4 RNA with C25U, G26C, U29C, A31G
DNA 1: CAATCTGAATTCCGGTCTCCC
DNA 2: TGGTGGCTACGACGGGATT
B20: CUGGGGG (DNA:RNA)
RNA: B4 RNA with G26U, U28G, U29G, A30G, A31G
DNA 1: CAATCTGAATTCCGGTCTCCC
DNA 2: TGGTGGCTACGACGGGATT
B21: AUUCAGA (DNA:RNA)
RNA: B4 RNA with C25A, G26U, G27U, U28C, U29A, A30G
DNA 1: CAATCTGAATTCCGGTCTCCC
DNA 2: TGGTGGCTACGACGGGATT
B22: AUGACCA (DNA:RNA)
RNA: B4 RNA with C25A, G26U, U28A, U29C, A30C
DNA 1: CAATCTGAATTCCGGTCTCCC
DNA 2: TGGTGGCTACGACGGGATT
B23: GCGUGUU (DNA:RNA)
RNA: B4 RNA with C25G, G26C, U29G, A30U, A31U
DNA 1: CAATCTGAATTCCGGTCTCCC
DNA 2: TGGTGGCTACGACGGGATT
B24: ACGACGC (DNA:RNA)
RNA: B1 RNA with G25A, C27G, G28A, A29C, C30G
DNA 1: CAATCTGAATTCCGGTCTCCC
DNA 2: TGGTGGCTACGACGGGATT
B25: CGAUGGA (DNA:RNA)
RNA: B4 RNA with G27A, U29G, A30G
DNA 1: CAATCTGAATTCCGGTCTCCC
DNA 2: TGGTGGCTACGACGGGATT
B26: GGCUCUU (DNA:RNA)
RNA: B4 RNA with C25G, G27C, U29C, A30U, A31U
DNA 1: CAATCTGAATTCCGGTCTCCC
DNA 2: TGGTGGCTACGACGGGATT
B27: UGAUUCA (DNA:RNA)
RNA: B4 RNA with C25U, G27A, A30C
DNA 1: CAATCTGAATTCCGGTCTCCC
DNA 2: TGGTGGCTACGACGGGATT
B28: GAUCUUC (DNA:RNA)
RNA: B1 RNA with C26A, C27U, G28C, A29U, C30U
DNA 1: CAATCTGAATTCCGGTCTCCC
DNA 2: TGGTGGCTACGACGGGATT
B29: GACAAUU (DNA:RNA)
RNA: B1 RNA with C26A, G28A, C30U, C31U
DNA 1: CAATCTGAATTCCGGTCTCCC
DNA 2: TGGTGGCTACGACGGGATT
B30: GCGACUU (DNA:RNA)
RNA: B1 RNA with C27G, G28A, A29C, C30U, C31U
DNA 1: CAATCTGAATTCCGGTCTCCC
DNA 2: TGGTGGCTACGACGGGATT
B31: UCCCCUG (DNA:RNA)
RNA: B1 RNA with G25U, G28C, A29C, C30U, C31G
DNA 1: CAATCTGAATTCCGGTCTCCC
DNA 2: TGGTGGCTACGACGGGATT

The test addresses T1, RBFOX1 RRM (Homo sapiens, UniProt Q9NWB1 109-208).
T1 sequence: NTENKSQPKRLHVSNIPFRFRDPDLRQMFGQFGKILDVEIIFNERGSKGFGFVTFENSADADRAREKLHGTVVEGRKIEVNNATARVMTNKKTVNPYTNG
Kind of test: EMSA; HiTS-Eq, 1 nM pool, 10 min; buffer printed only for the single-RNA assays: 10 mM Tris pH 7.5, 150 mM NaCl, 3.4 mM EDTA, 0.001% NP-40, 30 C. The conditions noted are these: tags: His6 N-terminal (pET28a); label: 5' 32P. The method, boiled down:
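A pool of RNA with 7 randomized nucleotides, 5′-radiolabelled and with DNA-annealed flanks, was equilibrated at 1 nM for 10 min in 50 µL with purified RbFox RRM, wild type or mutant, across increasing protein concentrations. Free RNA was separated by 8% native PAGE, excised, reverse-transcribed, barcoded by PCR and sequenced. Relative association constants were obtained from read-count changes of each RNA species versus the control reaction and normalised to the cognate motif.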
In general terms: Mobility shift assays separate free from complexed probe on a gel.
With B1, the binding signal was 0.0152 KA relative to UGCAUGU. In the case of B2 it was 0.00377 KA relative to UGCAUGU; in that of B3, 0.00394 KA relative to UGCAUGU. Consider B4, for which the binding signal was 0.00507 KA relative to UGCAUGU. On to B5, for which the binding signal was 0.00825 KA relative to UGCAUGU. The result for B6 reads 0.0122 KA relative to UGCAUGU. Turning to B7, the binding signal was 0.0145 KA relative to UGCAUGU. For the molecule B8, the binding signal was 0.0184 KA relative to UGCAUGU.

Regarding B9, the binding signal is 0.00345 KA relative to UGCAUGU. In the case of B10 it was 0.0111 KA relative to UGCAUGU; in that of B11, 0.01 KA relative to UGCAUGU; in that of B12, 0.0229 KA relative to UGCAUGU. As for B13, the binding signal was 0.0092 KA relative to UGCAUGU. The result for B14 reads 0.0103 KA relative to UGCAUGU; that for B15, 0.00558 KA relative to UGCAUGU. As to B16, the binding signal is 0.00626 KA relative to UGCAUGU. For B17, the binding signal is 0.00323 KA relative to UGCAUGU. As to B18, the binding signal is 0.0089 KA relative to UGCAUGU. In the case of B19 it was 0.0131 KA relative to UGCAUGU. In the case of B20 it was 0.00932 KA relative to UGCAUGU. The result for B21 reads 0.0101 KA relative to UGCAUGU; that for B22, 0.00337 KA relative to UGCAUGU; that for B23, 0.0219 KA relative to UGCAUGU. As for B24, the binding signal is 0.00275 KA relative to UGCAUGU. Consider B25, for which the binding signal is 0.00442 KA relative to UGCAUGU. The result for B26 reads 0.01 KA relative to UGCAUGU. The result for B27 reads 0.0154 KA relative to UGCAUGU; that for B28, 0.0194 KA relative to UGCAUGU. In the case of B29 it was 0.00391 KA relative to UGCAUGU; in that of B30, 0.0138 KA relative to UGCAUGU. As for B31, the binding signal was 0.00829 KA relative to UGCAUGU.
